# Results reported in the supplement of paper PMC10126150.
# Values marked as one replicate rest on one cluster of the flow cell; about a third of the high ones do not repeat.
# System: ATP
# Assay: switch fluorescence ratio, 500 uM ATP over buffer (Cy3 cluster intensity, sum of 5 cycles each) (fold (ratio)); higher = stronger signal-on switching upon ATP binding; sequences stand for … in TCGTCGGCAGCGTCAGATGTGTATAAGAGACAGTTTTTTTTTTTTTTTTTTTTTTTTT…TC
# Conditions: aptamer strand: ATP DNA aptamer (quencher-CACCTGGGGGAGTATTGCGGAGGAAGG + anchor), 100 nM annealed; ATP concentration: 500 uM; one replicate
# Summary of the method: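 Clusters with intensities outside 100-1000 RFU were excluded. The remaining Cy3-labelled switching-strand clusters on a modified Illumina MiSeq flow-cell had been annealed to 100 nM quencher-labelled ATP aptamer and imaged in selection buffer, then after 15 min with 500 uM ATP at 22 °C, for five cycles separated by NaOH stripping and re-annealing. The fluorescence ratio, averaged per switch-domain sequence, is each cluster's summed target-cycle Cy3 intensity over its summed buffer-cycle Cy3 intensity.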
# 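Also: ATP exposure 15 min at 22 °C before imaging.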
row,Sequence,switch fluorescence ratio
1,AGGTTGCTGT,0.986
2,CAGTGTCTTA,0.961
3,GCCCCGGTCT,0.977
4,TAGTACTAAG,1.04
5,CGGGAAGGTC,1.08
6,GAACGTACAC,1.84
7,CGTGCAGAGG,1
8,CCATTCCTTG,1.01
9,AAGTAGTACA,1.04
10,TCAATCCGAG,1.06
11,TGAATACCGG,0.983
12,ATTTTTATAG,1.06
13,GTAGGTGCCG,0.991
14,GTGTCCATTT,0.989
15,TGCATATCGC,1.04
16,GGGGTAATGA,0.96
17,ATTAACCGGT,1.09
18,GGTTGGCACG,1.03
19,GGCCCCAAAA,1.28
20,ATACCCGTTA,0.992
21,AGTTATATTT,0.983
22,ACTGCCGCGC,1.23
23,GCGTACCCTT,1.04

row,Sequence,switch fluorescence ratio
1,ACCAACAAAC,1.2
2,GGTAACGTGT,0.923
3,TATGTGTTCG,0.994
4,TCAGCTTGTA,1
5,GCGGCATGTG,1.03
6,ACGTCCAGTC,0.991
7,GGTCAGGCTC,0.992
8,TGTTCTGCC,1.07
9,GGAGTGTTGC,1.01
10,GCGTACCGCT,1.04
11,CACCAGAGTC,1.09
12,ACATATATTG,0.975
13,GTGCGCGG,0.966
14,GGAATACGGT,1.15
15,AGGGCGAACC,1.06
16,GCTAATGGG,1.03
17,TCTAATGCTT,0.95
18,AGTCGAGCT,1.01
19,CCCTTCTCGC,1.76
20,CATTCCACTT,1.02
21,TCGGGGAT,1.01
22,GCAACGTATA,1.08
23,GTAGTAGCGA,1.06

row,Sequence,switch fluorescence ratio
1,GAGTTTAATG,0.994
2,GCGCAATAGC,4.72
3,ATCGAAAATT,0.949
4,ACCTCTTGTT,1
5,GGGTGTGGCC,1.02
6,CTCGCAGACA,1.35
7,TACAGTGAAT,1.13
8,GGAGGCCGG,1.09
9,TCTCAAATCG,0.936
10,ACGCCTCTTG,1.01
11,CAGTGACTCT,0.98
12,AACGGAGCTG,1.17
13,ATAGGATTAC,1.17
14,AGATCGCACT,1.06
15,TGAGAGGACA,1.01
16,GAAACGGGAG,1.08
17,GGATATTGA,1.03
18,TCTAATCAAT,1.04
19,ATCGTAAAGC,1.06
20,GGATATGTAC,1.1
21,ATTTTTCGGA,1.03
22,TCGATTTGTG,1.01
23,CTAAAGGGAT,0.983

row,Sequence,switch fluorescence ratio
1,AATACGTCCT,1.03
2,TCTGTTTGAA,1.06
3,TATGATAGAA,1.01
4,GACTAGGACG,0.992
5,CACAGGGTAC,1.1
6,CAGAAGAGTT,0.98
7,GCTAGGGACG,1.05
8,CACAAAACAC,1.08
9,TATGCGACG,1.05
10,ATCGGACGC,1.09
11,TTATTCAGAA,0.946
12,CAGAGGAACA,1
13,AGCGAGACAT,1.11
14,CCACCCTGGT,1.15
15,GGTAAACGGT,0.964
16,CGGAGTCCTG,0.974
17,CTGAGGCGAT,1.01
18,TTATGGGCCT,0.982
19,AAATTCACCT,1.29
20,GACGCTTCGA,1.13
21,CGAATGATGG,0.974
22,TCGCGCCGCA,1.14
23,ACGCACCCAT,1.45

row,Sequence,switch fluorescence ratio
1,ACTAGCGGCC,1.04
2,TAGCATAATG,1.01
3,TTGAGAAATA,0.972
4,AGCCATATAT,1.05
5,CGCATGGCCG,1.05
6,AAGGGTCAAT,1.06
7,GTTCAACAGT,0.968
8,GAACCGCCGA,1.13
9,CGACACGAAG,0.992
10,GATGGGATGA,0.986
11,TAGCGGGCTG,0.991
12,TAATAGCCCG,1
13,AGTTTGGAAT,0.99
14,CAAGTATCTC,0.999
15,ATCAGCTAC,2.44
16,TATATGTATG,1.01
17,AGTGGGGTGT,0.968
18,TACTCGCTAT,1.93
19,CGTACGGGAT,0.977
20,TGCATACACG,1.21
21,GGATATAACT,1.02
22,GCACGGGTAC,1.06
23,CGCGCGCCGA,1.02

row,Sequence,switch fluorescence ratio
1,ACTTTCATT,1.15
2,AGTACTGTAG,1.02
3,ACGGTATCCA,1.15
4,TTGCATAGG,1.1
5,AAAGCAGTCT,1.14
6,GAAAGTGGCG,0.969
7,GTGGTTATAA,1.03
8,TGAATCTCGA,1.05
9,CATGTGCTAC,2.82
10,TCACTTGCA,1.03
11,CCAACACCTT,1.15
12,TAATGATGTG,1.02
13,GTGTAGAGGA,0.96
14,GAAGTTGCTC,1.01
15,TGTGGGATT,0.964
16,TCGTATAATA,0.972
17,TCGGTAGATA,1.02
18,CCAAGTCGTC,1.05
19,GGCCAATAGT,1.02
20,GAGTTGATAC,1.05
21,ATCACGAGAG,1.03
22,GGAATCAGTT,0.997
23,TTGAGATCGT,0.996

row,Sequence,switch fluorescence ratio
1,TAGTCTCAAT,0.939
2,GTCATGCTAT,0.992
3,GCATGGGGAA,1.02
4,ATGCCTTG,1.04
5,CGATCAGAGG,1.02
6,AGTTAATGCG,0.994
7,ACTCTATTCA,1.04
8,ACTGACTCT,1.14
9,TACCCAGCAA,2.98
10,GAGGTCGGTC,1.04
11,TACGGATGGG,1.03
12,TTGAGGTGGT,0.977
13,ACTACTTGTC,1.03
14,TGTAAGTTGA,1.03
15,CTGGAAGCGC,1.02
16,TAAGCCGCGC,1
17,TACAATATAG,1.06
18,GCAGCACCCC,2.42
19,TCTAGGTCGA,0.993
